# Laboratory results: patent US20230357444A1 (published 2023)
# B1: MCSP-G4 HLP × E1L HLP (bispecific antibody)
# chain: QVQLVQSGAEVKRPGASMKVSCKASGYTFTNYYIHWVRQAPGQGLEWMGWINPNSGATNYAQKFQGRVTMTRDTSTSTVYMELSSLRSEDTAVYYCAKSWVSWFASWGQGTLVTVSSGGGGSGGGGSGGGGSELVMTQSPDSLAVSLGERATINCKSSQSVLNSSNNRNYLAWYQQKPGQPPKLLIYWASTRESGVPDRFSGSGSGTDFTLTISGLQAEDVAVYYCQQHYSTPFTFGPGTKVDIKSGGGGSEVQLLESGGGLVQPGGSLKLSCAASGFTFNKYAMNWVRQAPGKGLEWVARIRSKYNNYATYYADSVKSRFTISRDDSKNTAYLQMNNLKTEDTAVYYCVRHGNFGNSYTSYYAYWGQGTLVTVSSGGGGSGGGGSGGGGSELVVTQEPSLTVSPGGTVTLT[about 80 residues omitted here]FGGGTKLTVLHHHHHH
# B2: MCSP-G4 HLP × F6A HLP (bispecific antibody)
# chain: QVQLVQSGAEVKRPGASMKVSCKASGYTFTNYYIHWVRQAPGQGLEWMGWINPNSGATNYAQKFQGRVTMTRDTSTSTVYMELSSLRSEDTAVYYCAKSWVSWFASWGQGTLVTVSSGGGGSGGGGSGGGGSELVMTQSPDSLAVSLGERATINCKSSQSVLNSSNNRNYLAWYQQKPGQPPKLLIYWASTRESGVPDRFSGSGSGTDFTLTISGLQAEDVAVYYCQQHYSTPFTFGPGTKVDIKSGGGGSEVQLLESGGGLVQPGGSLKLSCAASGFTFNIYAMNWVRQAPGKGLEWVARIRSKYNNYATYYADSVKSRFTISRDDSKNTAYLQMNNLKTEDTAVYYCVRHGNFGNSYVSFFAYWGQGTLVTVSSGGGGSGGGGSGGGGSELVVTQEPSLTVSPGGTVTLT[about 80 residues omitted here]FGGGTKLTVLHHHHHH
# B3: MCSP-G4 HLP × G4H HLP (bispecific antibody)
# chain: QVQLVQSGAEVKRPGASMKVSCKASGYTFTNYYIHWVRQAPGQGLEWMGWINPNSGATNYAQKFQGRVTMTRDTSTSTVYMELSSLRSEDTAVYYCAKSWVSWFASWGQGTLVTVSSGGGGSGGGGSGGGGSELVMTQSPDSLAVSLGERATINCKSSQSVLNSSNNRNYLAWYQQKPGQPPKLLIYWASTRESGVPDRFSGSGSGTDFTLTISGLQAEDVAVYYCQQHYSTPFTFGPGTKVDIKSGGGGSEVQLLESGGGLVQPGGSLKLSCAASGFTFNRYAMNWVRQAPGKGLEWVARIRSKYNNYATYYADSVKGRFTISRDDSKNTAYLQMNNLKTEDTAVYYCVRHGNFGNSYLSYFAYWGQGTLVTVSSGGGGSGGGGSGGGGSELVVTQEPSLTVSPGGTVTLT[about 80 residues omitted here]FGGGTKLTVLHHHHHH
# B4: MCSP-F9 HLP × G4H HLP (bispecific antibody)
# chain: EVQLQESGPGLVKPSETLSLTCVVSGGSISSSNWWSWVRQPPGKGLEWLGTIYYNGNTYYNPSLKSRVTISVDTSKNQFSLRLSSVTAADTAVYYCAKSWVSWFASWGQGTLVTVSSGGGGSGGGGSGGGGSELVMTQSPDSLAVSLGERATINCKSSQSVLSSSNNKNYLNWYQQKPGQPPKLLIYWASTRESGVPDRFSGSGSGTDFTLTISSLQAEDVAVYYCQQHYSVPFTFGPGTKVDIKSGGGGSEVQLLESGGGLVQPGGSLKLSCAASGFTFNRYAMNWVRQAPGKGLEWVARIRSKYNNYATYYADSVKGRFTISRDDSKNTAYLQMNNLKTEDTAVYYCVRHGNFGNSYLSYFAYWGQGTLVTVSSGGGGSGGGGSGGGGSELVVTQEPSLTVSPGGTVTLT[about 80 residues omitted here]FGGGTKLTVLHHHHHH
# Molecular target: T1, human CD3 (native CD3 complex on human T cells) (human, UniProt P07766)
# T1 construct: whole, on cells; also called human CD3+ T cell line HPB-ALL; human CD3 positive PBMC
# T1 sequence (P07766 23-207, one chain of several): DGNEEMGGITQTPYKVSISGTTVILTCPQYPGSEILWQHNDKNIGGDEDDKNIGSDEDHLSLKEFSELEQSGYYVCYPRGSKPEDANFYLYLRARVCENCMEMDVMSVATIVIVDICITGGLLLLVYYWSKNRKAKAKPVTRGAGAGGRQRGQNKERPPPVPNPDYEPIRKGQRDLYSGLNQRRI
# Assay: FACS, HPB-ALL
row,binding result,Binder
1,binds,B1
2,binds,B2
3,binds,B3
4,binds,B4
